Results taken from the supplement of paper PMC6135742.
Values joined by “and” are separate entries in the source; they are usually repeats but may differ in a detail not shown here. Equal entries are not always repeated. Structures can show the parent of a compound that is named as a salt. ± gives the standard deviation of the averaged measurements. The full ranking holds about 2,600 compounds; the median of “total cell number (DAPI+ nuclei) relative to DMSO vehicle control” is about -1.4, and the lowest 2% start at about -23. The list shows a part of the results.

These compounds were tested on jimpy (Plp1 jimpy) mouse iPSC-derived oligodendrocyte progenitor cells (assay: total cell number (DAPI+ nuclei) relative to DMSO vehicle control (SDs above negative control mean); higher = more surviving cells). Settings: 10 µM; 3 days.

Question: Which total cell number does the source give for NC(=O)c1cnccn1 [Pyrazinecarboxamide] here?
Answer: -1.25

Question: With NC(=O)c1cnccn1 [Pyrazinamide] as the compound, how does the total cell number read?
Answer: -1.15

Question: Which total cell number does the source give for O=C(Nc1ccc(S(=O)(=O)Nc2ccccc2Cl)c(Cl)c1)c1ccccn1 here?
Answer: 0.173

Question: For Oc1ccc(-c2nc(-c3ccc(F)cc3)c(-c3ccncc3)[nH]2)cc1, which total cell number is on record?
Answer: -6.72 and -11.4

Question: Which total cell number does the source give for Cc1ccc(C(=O)Nc2ccc(CN3CCN(C)CC3)c(C(F)(F)F)c2)cc1C#Cc1cnc2[nH]ncc2c1 here?
Answer: -16.3

Question: For O=C(NC[C@H](O)CO)c1ccncc1Nc1ccc(I)cc1F, which total cell number is on record?
Answer: -17.5

Question: With C=C[C@H]1CN2CC[C@H]1C[C@H]2[C@H](O)c1ccnc2ccc(OC)cc12 [Quinine sulfate] as the compound, how does the total cell number read?
Answer: -2.52

Question: With CCOc1cc(C(=O)Nc2ccc(Cl)c(-c3nc4ccccc4[nH]3)c2)cc(OCC)c1OCC as the compound, how does the total cell number read?
Answer: -2.15

Question: Which total cell number does the source give for CC1(C)S[C@@H]2[C@H](NC(=O)[C@H](N)c3ccccc3)C(=O)N2[C@H]1C(=O)O [Ampicillin Trihydrate] here?
Answer: -0.253

Question: With CC1(C)S[C@@H]2[C@H](NC(=O)[C@H](N)c3ccccc3)C(=O)N2[C@H]1C(=O)O [Ampicillin sodium] as the compound, how does the total cell number read?
Answer: -1.95

Question: How did the total cell number turn out when Cc1ccccc1C(C(=O)NC1CCCCC1)N(C(=O)Cn1ccnc1C)c1cccc(F)c1 (stereo not given) was run?
Answer: -4.27

Question: O=c1n(CCCN2CCN(c3cccc(Cl)c3)CC2)nc2ccccn12 [Trazodone HCl] was tested. Which total cell number did it give?
Answer: -1.83

Question: For O=c1n(CCCN2CCN(c3cccc(Cl)c3)CC2)nc2ccccn12 [Trazodone hydrochloride], which total cell number is on record?
Answer: -2.33

Question: How did the total cell number turn out when O=C(O)c1cc(=O)[nH]c(=O)[nH]1 [Orotic acid (6-Carboxyuracil)] was run?
Answer: -0.896

Question: With C[C@]12CCC(=O)C=C1[C@@H]1C[C@@H]1[C@H]1[C@@H]3[C@@H]4C[C@@H]4[C@@]4(CCC(=O)O4)[C@@]3(C)CC[C@@H]12 [Drospirenone] as the compound, how does the total cell number read?
Answer: -1.26

Question: With COc1ccc2cc([C@H](C)C(=O)O)ccc2c1 [(-)-Naproxen sodium] as the compound, how does the total cell number read?
Answer: -1.87

Question: How did the total cell number turn out when COc1ccc2cc([C@H](C)C(=O)O)ccc2c1 [Naproxen] was run?
Answer: -0.0804

Question: N#Cc1cc(CN2CCC(Nc3ncnc4sc(Cl)cc34)CC2)ccc1F was tested. Which total cell number did it give?
Answer: -7.89

Question: With Nc1ncnc2c1ncn2[C@@H]1O[C@H](COP(=O)(O)OP(=O)(O)OP(=O)(O)OP(=O)(O)OC[C@@H]2O[C@H](n3cnc4c(N)ncnc43)C(O)[C@@H]2O)[C@H](O)C1O (stereo not given in full) [P1,P4-Di(adenosine-5')tetraphosphate triammonium] as the compound, how does the total cell number read?
Answer: -0.947

Question: With Nc1cc(N2CCCCC2)nc(N)[n+]1[O-] [Minoxidil] as the compound, how does the total cell number read?
Answer: -1.83

Question: How did the total cell number turn out when OC1(c2ccc(Cl)cc2)CCN(Cc2c[nH]c3ccccc23)CC1 was run?
Answer: -5.17

Question: Cc1ncc([N+](=O)[O-])n1CC(C)O (stereo not given) [Secnidazole] was tested. Which total cell number did it give?
Answer: -1.04

Question: Which total cell number does the source give for OCCn1cc(-c2cnc3nnn(Cc4ccc5ncccc5c4)c3n2)cn1 here?
Answer: 3

Question: O=C(O)c1cc2cc(Cc3cccnc3)ccc2o1 [Furegrelate sodium] was tested. Which total cell number did it give?
Answer: -0.806

Question: For NC(=O)c1ccc(I)c([N+](=O)[O-])c1 [Iniparib (BSI-201)], which total cell number is on record?
Answer: -4.49

Question: How did the total cell number turn out when O=C(O)c1cc(/N=N/c2ccc(S(=O)(=O)Nc3ccccn3)cc2)ccc1O [Sulfasalazine] was run?
Answer: -0.33

Question: How did the total cell number turn out when c1ccc(C2CN3CCSC3=N2)cc1 (single isomer, unassigned; (-)) [(-)-Tetramisole hydrochloride] was run?
Answer: -0.37

Question: With c1ccc(C2CN3CCSC3=N2)cc1 (single isomer, unassigned; (-)) [(-)-Tetramisole] as the compound, how does the total cell number read?
Answer: -1.04

Question: With CN/C(=N\CCSCc1nc[nH]c1C)NC#N [Cimetidine] as the compound, how does the total cell number read?
Answer: -0.0647 ± 3.1

Question: How did the total cell number turn out when COc1ccc(C2=N[C@@H](c3ccc(Cl)cc3)[C@@H](c3ccc(Cl)cc3)N2C(=O)N2CCNC(=O)C2)c(OC(C)C)c1 [Nutlin-3] was run?
Answer: -23.5

Question: How did the total cell number turn out when O=c1oc2cc(O)ccc2s1 [Tioxolone] was run?
Answer: -2.27

Question: COc1cc2ncnc(Nc3cccc(Cl)c3)c2cc1OC [AG-1478 (Tyrphostin AG-1478)] was tested. Which total cell number did it give?
Answer: -7.87

Question: With COc1cc2ncnc(Nc3cccc(Cl)c3)c2cc1OC [Tyrphostin AG 1478] as the compound, how does the total cell number read?
Answer: -5.25

Question: With C[C@]12CCC3=C4CCC(=O)C=C4CC[C@H]3[C@@H]1CC[C@@]2(O)CC#N [Dienogest] as the compound, how does the total cell number read?
Answer: -2.34

Question: Which total cell number does the source give for O=C(O)[C@H](CC(=O)N1C[C@H]2CCCC[C@H]2C1)Cc1ccccc1 [Mitiglinide calcium] here?
Answer: -0.654

Question: Which total cell number does the source give for c1coc(CNc2ncnc3[nH]cnc23)c1 [Kinetin] here?
Answer: 0.658

Question: S=c1[nH]c(-c2ccccc2)cn1-c1ccccc1 was tested. Which total cell number did it give?
Answer: -0.664

Question: Which total cell number does the source give for C[C@@H]1C[C@H]2[C@@H]3CCC4=CC(=O)C=C[C@]4(C)[C@@]3(Cl)[C@@H](O)C[C@]2(C)[C@@]1(OC(=O)c1ccco1)C(=O)CCl [Mometasone furoate] here?
Answer: -0.0447

Question: CCOC(=O)[C@H](CCc1ccccc1)N[C@@H](C)C(=O)N1C(=O)N(C)C[C@H]1C(=O)O [Imidapril HCl] was tested. Which total cell number did it give?
Answer: 0.247

Question: Which total cell number does the source give for CCOC(=O)c1cnc2c(cnn2CC)c1NN=C(C)C [Etazolate hydrochloride] here?
Answer: -1.19

Question: With Cc1ccc(NC(=O)C2(c3ccc4c(c3)OC(F)(F)O4)CC2)nc1-c1cccc(C(=O)O)c1 [VX-809 (Lumacaftor)] as the compound, how does the total cell number read?
Answer: 1.21

Question: For Cn1cc(/C=C2\C(=O)Nc3cccnc32)c2ccccc21, which total cell number is on record?
Answer: -4.69

Question: Which total cell number does the source give for CC(C)OC(=O)C(C)(C)Oc1ccc(C(=O)c2ccc(Cl)cc2)cc1 [Fenofibrate] here?
Answer: -1.69 ± 1.2

Question: With CCN(CC)CCOc1ccc(Nc2ncc3cc(-c4c(Cl)cccc4Cl)c(=O)n(C)c3n2)cc1 as the compound, how does the total cell number read?
Answer: -10.7

Question: How did the total cell number turn out when NC(=O)CC[C@H](N)C(=O)O [L-Glutamine] was run?
Answer: -1.71

Question: Which total cell number does the source give for CCn1c(-c2nonc2N)nc2c(C#CC(C)(C)O)ncc(OC[C@H]3CCCNC3)c21 here?
Answer: -5.14

Question: With O=S(=O)(O)Oc1ccc(C(c2ccc(OS(=O)(=O)O)cc2)c2ccccn2)cc1 [Sodium Picosulfate] as the compound, how does the total cell number read?
Answer: 0.486

Question: Which total cell number does the source give for CN1C(=O)C(Cc2c[nH]c3ccccc23)NC1=S (stereo not given) [Necrostatin-1] here?
Answer: 0.123 ± 0.72

Question: For Cc1cc2c(s1)Nc1ccccc1N=C2N1CCN(C)CC1 [Olanzapine], which total cell number is on record?
Answer: -2.67 ± 0.65

Question: How did the total cell number turn out when NC(=O)c1ccc(-c2nc(-c3ccccn3)c(-c3ccc4c(c3)OCO4)[nH]2)cc1 was run?
Answer: -5.41

Question: Cc1cn(-c2cc(NC(=O)c3ccc(C)c(Nc4nccc(-c5cccnc5)n4)c3)cc(C(F)(F)F)c2)cn1 [Nilotinib (AMN-107)] was tested. Which total cell number did it give?
Answer: -6.92

Question: How did the total cell number turn out when CCCCN(CCCC)CC(O)c1cc(Cl)cc2c1-c1ccc(Cl)cc1/C2=C/c1ccc(Cl)cc1 (stereo not given) [Lumefantrine] was run?
Answer: -1.83

Question: How did the total cell number turn out when C[C@@H](O[C@H]1OCCN(Cc2n[nH]c(=O)[nH]2)[C@H]1c1ccc(F)cc1)c1cc(C(F)(F)F)cc(C(F)(F)F)c1 [Aprepitant] was run?
Answer: -9.88

Question: CCCNC(=O)Nc1ccc(Oc2ncnc3cc(OC)c(OC)cc23)cc1Cl was tested. Which total cell number did it give?
Answer: -7.69

Question: O=C(O)c1cc(=O)c2c(Cl)cc(Cl)cc2[nH]1 [5,7-Dichlorokynurenic acid] was tested. Which total cell number did it give?
Answer: -1.95

Question: CCN1C[C@H](C)n2c(c(O)c3c(=O)n(Cc4ccc(F)c(Cl)c4)nc(C(=O)NC)c32)C1=O was tested. Which total cell number did it give?
Answer: -2.03

Question: How did the total cell number turn out when CC(=O)c1c(C)c2cnc(Nc3ccc(N4CCNCC4)cn3)nc2n(C2CCCC2)c1=O was run?
Answer: -20.4

Question: How did the total cell number turn out when O=Nc1ccc2oc(=O)ccc2c1 [6-Nitroso-1,2-benzopyrone] was run?
Answer: -2.62

Question: Which total cell number does the source give for CC(C)(C)c1ccc(S(=O)(=O)/C=C/C#N)cc1 here?
Answer: -4.62

Question: How did the total cell number turn out when O=c1cc(-c2ccccc2)oc2cc(O)c(O)c(O)c12 [Baicalein] was run?
Answer: -6.52

Question: With N[C@@H](CCCC(=O)O)C(=O)O [L-2-aminoadipic acid] as the compound, how does the total cell number read?
Answer: 0.747

Question: How did the total cell number turn out when O=c1[nH]c2cc(C(F)(F)F)ccc2n1-c1cc(C(F)(F)F)ccc1O was run?
Answer: -1.85

Question: How did the total cell number turn out when COc1cc(C2Oc3cc([C@H]4Oc5cc(O)cc(O)c5C(=O)[C@@H]4O)ccc3OC2CO)ccc1O (stereo not given in full) [Silibinin] was run?
Answer: 0.57

Question: With COc1cc(C2Oc3cc([C@H]4Oc5cc(O)cc(O)c5C(=O)[C@@H]4O)ccc3OC2CO)ccc1O (stereo not given in full) [Silymarin] as the compound, how does the total cell number read?
Answer: -0.808

Question: Which total cell number does the source give for C[C@]1(c2nc3c(C(N)=O)cccc3[nH]2)CCCN1 [Veliparib (ABT-888)] here?
Answer: -1.63

Question: For CC(=O)N[C@@H](CS)C(=O)O [Acetylcysteine], which total cell number is on record?
Answer: -0.116

Question: For CC(=O)N[C@@H](CS)C(=O)O [N-Acetyl-L-Cysteine], which total cell number is on record?
Answer: -0.217

Question: CC(=O)O[C@H]1C[C@@]2(C)[C@@H](C[C@@H](O)[C@H]3[C@@]4(C)CC[C@@H](O)[C@@H](C)[C@@H]4CC[C@@]32C)/C1=C(\CCC=C(C)C)C(=O)O [Fusidic acid sodium] was tested. Which total cell number did it give?
Answer: -0.624

Question: For O=c1[nH]c(=O)c2nc3ccccc3nc2[nH]1 [Alloxazine], which total cell number is on record?
Answer: -1.59

Question: For O=C(O)Cc1cccc(OCCCN(Cc2cccc(C(F)(F)F)c2Cl)CC(c2ccccc2)c2ccccc2)c1, which total cell number is on record?
Answer: 7.66

Question: With O=c1cc(-c2ccccc2)[nH]c2nc(Cl)ccc12 [7-Chloro-4-hydroxy-2-phenyl-1,8-naphthyridine] as the compound, how does the total cell number read?
Answer: -5.03

Question: For COc1cccc2cc(-c3nc([C@H]4CC[C@H](C(=O)O)CC4)n4ncnc(N)c34)[nH]c12, which total cell number is on record?
Answer: -7.04

Question: For O=C1CCC[C@@H]2[C@H]3CCC[N+]4([O-])CCC[C@@H](CN12)[C@@H]34 (stereo not given in full) [Oxymatrine], which total cell number is on record?
Answer: -0.222

Question: Which total cell number does the source give for CCN(CC)CCOC(=O)c1ccc(N)cc1 [Procaine hydrochloride] here?
Answer: 0.73

Question: Which total cell number does the source give for CCN(CC)CCOC(=O)c1ccc(N)cc1 [Procaine HCl] here?
Answer: 0.422

Question: Which total cell number does the source give for NC1CCN(O)C1=O (racemic) here?
Answer: -1.52

Question: Which total cell number does the source give for CC[C@H](C)C(=O)O[C@H]1C[C@@H](C)C=C2C=C[C@H](C)[C@H](CC[C@@H]3C[C@@H](O)CC(=O)O3)[C@H]21 [Lovastatin] here?
Answer: -7.33

Question: How did the total cell number turn out when Clc1ccc(C(Cn2ccnc2)OCc2ccc(Sc3ccccc3)cc2)c(Cl)c1 (stereo not given) [Fenticonazole Nitrate] was run?
Answer: -0.366

Question: Fc1ccc2[nH]c(CN3CCN(c4ccccn4)CC3)cc2c1 was tested. Which total cell number did it give?
Answer: -2.06

Question: C[C@H](Cn1cnc2c(N)ncnc21)OCP(=O)(O)O [Tenofovir] was tested. Which total cell number did it give?
Answer: -0.772
